The other results are listed elsewhere or left out. The data describe in vitro nicking of single-stranded DNA by Rep domains for 1 h at 37 °C with 3 µM enzyme; only the middle of the 90-letter strands is printed. Numbers give uncut DNA relative to the enzyme-free pool, as log2; more negative means more cut, near 0 not cut, and no call is made. Because reads are shares of a total, they shift together; where an enzyme cuts many sequences, the uncut ones exceed 0.
Key:
Assay in all cases: uncleaved DNA left, log2 of reads against the no-enzyme library (log2 ratio); higher = less cleavage (more negative = more Rep cleavage of the k-mer); sequences stand for … in CTCGTCCG…ACCGGAGA
[1] = test system: T1, Rep nickase domain of Muscovy duck circovirus
T1 sequence (residues 1-111, tag not shown): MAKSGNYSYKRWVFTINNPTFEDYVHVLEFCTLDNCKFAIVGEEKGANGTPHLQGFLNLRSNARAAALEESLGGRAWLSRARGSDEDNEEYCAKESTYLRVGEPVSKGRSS
Protocol: (§1)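 A pool of 90-nt single-stranded DNAs with seven random bases just before the constant AC of the nick site (name = the seven bases) was cut by 3 µM recombinant His6-SUMO-tagged Rep nickase domain (300 nM DNA, 50 mM HEPES pH 8.0, 50 mM NaCl, 1 mM MnCl2, 1 h, 37 °C, three replicates). Uncut DNA was amplified and sequenced.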

[2] = test system: T2, Rep nickase domain of banana bunchy top virus
T2 sequence (residues 1-94, tag not shown): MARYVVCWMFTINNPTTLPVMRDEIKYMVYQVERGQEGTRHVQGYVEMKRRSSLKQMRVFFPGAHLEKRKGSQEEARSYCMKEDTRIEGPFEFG
Protocol: as §1

[3] = test system: T3, Rep nickase domain of cabbage leaf curl virus
T3 sequence (residues 1-116, tag not shown): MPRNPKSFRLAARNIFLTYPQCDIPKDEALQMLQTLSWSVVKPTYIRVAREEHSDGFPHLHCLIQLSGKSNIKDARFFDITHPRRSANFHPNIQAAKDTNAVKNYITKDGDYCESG
Protocol: as §1

[4] = test system: T4, Rep nickase domain of chickpea chlorotic dwarf virus
T4 sequence (residues 1-124, tag not shown): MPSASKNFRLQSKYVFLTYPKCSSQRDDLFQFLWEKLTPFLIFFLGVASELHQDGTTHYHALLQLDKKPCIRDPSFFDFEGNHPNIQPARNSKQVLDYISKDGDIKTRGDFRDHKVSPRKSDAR
Protocol: as §1

[5] = test system: T5, Rep nickase domain of faba bean necrotic yellows virus
T5 sequence (residues 1-98, tag not shown): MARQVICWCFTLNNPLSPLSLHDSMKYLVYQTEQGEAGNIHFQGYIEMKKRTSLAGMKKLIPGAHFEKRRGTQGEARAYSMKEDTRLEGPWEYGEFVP
Protocol: as §1

[6] = test system: T6, Rep nickase domain of maize striate mosaic virus
T6 sequence (residues 1-117, tag not shown): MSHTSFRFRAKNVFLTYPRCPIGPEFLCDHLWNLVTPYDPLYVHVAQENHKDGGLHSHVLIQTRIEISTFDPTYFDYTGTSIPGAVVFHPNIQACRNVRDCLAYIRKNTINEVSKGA
Protocol: as §1

[7] = test system: T7, Rep nickase domain of porcine circovirus 2
T7 sequence (residues 2-116, tag not shown): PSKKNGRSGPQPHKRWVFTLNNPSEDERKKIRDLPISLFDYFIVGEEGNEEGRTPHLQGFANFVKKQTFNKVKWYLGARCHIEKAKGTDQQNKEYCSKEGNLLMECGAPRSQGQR
Protocol: as §1

[8] = test system: T8, Rep nickase domain of tomato yellow leaf curl virus
T8 sequence (residues 1-136, tag not shown): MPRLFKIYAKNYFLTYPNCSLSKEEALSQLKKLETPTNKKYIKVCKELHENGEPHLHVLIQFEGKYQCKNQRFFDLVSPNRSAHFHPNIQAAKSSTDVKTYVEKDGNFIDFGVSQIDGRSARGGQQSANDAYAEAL
Protocol: as §1

[9] = test system: T9, Rep nickase domain of wheat dwarf virus
T9 sequence (residues 1-137, tag not shown): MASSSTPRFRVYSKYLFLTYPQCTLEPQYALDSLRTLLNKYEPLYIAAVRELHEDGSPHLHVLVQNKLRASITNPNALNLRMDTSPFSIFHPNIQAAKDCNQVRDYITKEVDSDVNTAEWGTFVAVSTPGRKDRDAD
Protocol: as §1

Sequence | uncleaved DNA left (log2) [1] | uncleaved DNA left (log2) [2] | uncleaved DNA left (log2) [3] | uncleaved DNA left (log2) [4] | uncleaved DNA left (log2) [5] | uncleaved DNA left (log2) [6] | uncleaved DNA left (log2) [7] | uncleaved DNA left (log2) [8] | uncleaved DNA left (log2) [9]
GAAGTCG | 0.136 | 0.135 | -0.715 | 0.0505 | 0.0381 | -0.822 | 0.0337 | 0.0186 | 0.0728
ATCATGT | 0.0219 | -0.102 | -0.404 | -0.618 | -0.0698 | -1.14 | 0.0139 | -0.0371 | -0.0524
ACGAAGC | 2.24e-05 | 0.0652 | -0.347 | -0.462 | 0.0966 | -0.953 | 0.289 | 0.0174 | -0.00472
TCGGCCA | -0.112 | -0.0714 | 0.007 | -0.438 | -0.0984 | -0.38 | -0.255 | -0.0212 | -0.0764
GCTTTGT | 0.0299 | 0.0361 | -0.122 | 0.169 | 0.0866 | -0.309 | -0.204 | -0.0516 | 0.0717
ACTAGTG | -0.112 | -0.0423 | -0.777 | -0.303 | 0.0511 | -1.09 | 0.145 | 0.0679 | -0.138
TCCAAGG | 0.128 | -0.0294 | 0.532 | 1.44 | 0.0611 | 1.77 | 0.19 | -0.0798 | 0.132
GTACTTC | -0.0427 | -0.00125 | 0.412 | 0.841 | 0.0426 | 1.59 | 0.0654 | 0.0901 | 0.133
GATTTGG | 0.0278 | -0.141 | -0.039 | 0.0586 | -0.00952 | -0.626 | 0.104 | -0.0439 | -0.0188
CACGACT | 0.051 | -0.162 | -0.189 | -1.43 | 0.0143 | 1.05 | 0.0272 | -0.104 | 0.00925
CGAGTTG | -0.00964 | -0.00441 | -0.095 | 0.561 | -0.0856 | 1.11 | -0.0904 | -0.0777 | -0.00602
TTTAGTT | -0.117 | -0.0795 | 0.0122 | -2.15 | -0.0361 | -0.431 | -0.816 | -0.145 | -0.14
GGGCAAG | 0.0693 | 0.139 | 0.716 | 1.97 | 0.00702 | 2.07 | 0.204 | 0.0559 | 0.137
ATCAGGC | 0.0606 | 0.0639 | -0.0872 | -0.0126 | 0.027 | -0.872 | 0.097 | -0.0133 | -0.0909
ATACTAG | -0.0717 | 0.0054 | -0.771 | -0.798 | 0.0719 | -1.05 | 0.132 | -0.02 | -0.113
